Read counts are not given, so values of variants with three or more changes are uncertain.
B1: CPEB3 Ribozyme (parent)
chain: UAACAGGGGGCCACAGCAGAAGCGUUCACGUCGCAGCCCCUGUCAGAUUCUGGUGAAUCUGCGAAUUCUGCUGUAUAUCUC

Variants of: B1
Test: self-cleavage, relative activity (ratio to wild type); higher = more cleavage; in vitro, sequencing
Method in brief: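 CPEB3 self-cleaving ribozyme mutant libraries were made by rounds of error-prone PCR, barcoded, and transcribed in vitro with T7 RNA polymerase for 5 hours at 37°C. Cleavage occurred during transcription and a 15 min DNase I step before EDTA stop. RNAs were reverse transcribed with template switching and Illumina-sequenced, with DNA sequencing mapping barcodes to variants. Relative activity is the variant's cleaved/total read fraction divided by wild type's (minimum 5 reads), averaged across three batches.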

Variant	self-cleavage
U1A A13U U26G G52C	0.18
U1A A56U U72A	0.46
U1A C11G U48C U67C	0.12
U1A A20G A28U	0.62
U1A C17U U31C U69C	0.19
U1A A21G A45G U58A U80C	0.08
U1A G19U U41C G42C U43C	0.27
U1A G10A G16U U31A U48C	0.04
U1A A21G G42U A56G	0.12
U1A G10U A21G U31A U66G	0.02
U1A U41C U51A C62U U72C	0.26
U1A G10A C23A A28G U72A U80C	0.06
U1A G9A A18G A21G U31A C32G	0.13
U1A A5U U26C U80C	0.8
U1A A20U U31A	0.35
U1A A13U U60C A64G G73A U80A	0.76
U1A U26C A35G A56G U67C	0.53
U1A U48C U60C	0.17
U1A C12U G16A U43A U60C A64G U72C	0.09
U1A A18U U49C A56G A64G U78A	0.1
U1A C40A U41C	0.08
U1A A15G U49A A56U	1.03
U1A U26C A35C C62A U69G	0.14
U1A A21G U31C A65G	0.08

Variant	self-cleavage
U1A G8A C39A G73U	0.15
U1A G6A A20G U31C C34U A64U U78C	0.13
U1A G6A A56G	0.42
U1A G6A A21G C23A U26C A64U	0.06
U1A G16A A47G	0.28
U1A G33U U69A	0.16
U1A G33U G46A	0.22
U1A A15G G36C	0.26
U1A A56G A64G U66A U69C	0.15
U1A G8U A35U U67A	0.33
U1A C11G G16U A47G U48C U49A U72A	0.04
U1A G9A U60C	0.18
U1A A35G A64G U80C	1.28
U1A A35U U41C G70A C79U	0.21
U1A G9U G33U A45G C50G A57G G61A	0.03
U1A U41C C50U U51A U72C	0.84
U1A G8U U31G C50U U51G U60C	0.09
U1A A56G U72C	0.83
U1A G9A A15U A45C A57G	0.06
U1A C59A U72C	0.25
U1A C4U A21G U41A A57G U60C	0.16
U1A C37U U43A A64U	0.15
U1A A18U A20U A28G C81A	0.26
U1A G9A A56U	0.06

Variant	self-cleavage
U1A U25C A57G U78C C79A	0.23
U1A G9U A56G C62U	0.17
U1A G10A A45U	0.31
U1A G10U A18G A21G A64G	0.33
U1A A13G A18G U25A U58C U60A A64U	0.04
U1A U48C A64U U69C	0.28
U1A U26A U41A	0.08
U1A G7C U25C C39U U54A	0.26
U1A A20U U60C U76C A77U	0.09
U1A A5U U31C C39A U49A U51C U60C	0.12
U1A A45G U58G U72C	0.18
U1A C4U A45G C62U U66C	0.37
U1A U25C U43A A64U	0.1
U1A G7U U41C U43A U51C	0.21
U1A A47G U60C U72C	0.15
U1A A15C U26A U58C	0.23
U1A U26C U31C U72A	0.21
U1A G22A A28C U41A	0.2
U1A U25A U26G A65G	0.14
U1A A57G U76A A77U	0.74
U1A A21U A57G U67C	0.11
U1A G8A C14U C44A	0.05
U1A A15U A45G A57G	0.22
U1A U31A A35U U72C A77U U80C	0.3

Variant	self-cleavage
U1A C11G C37U U72A	0.12
U1A G10U A21G U31C A77G	0.1
U1A C11U U41C	0.58
U1A C23U U25C	0.09
U1A A13G U54C	0.85
U1A C39U G63A	0.55
U1A C11G G63A A77G	0.2
U1A G9U U80C	0.38
U1A U25A U60C U67C	0.08
U1A A15G A20G U26C U48A A57G U69C	0.07
U1A C32U A45C A57U	0.09
U1A A28U U41A U43A	0.06
U1A U31C A45C U72C	0.34
U1A U31A U54A	0.67
U1A G8A G19C C38A U49C A75U	0.04
U1A A35G U48C U60A	0.45
U1A C12A A18G A20U U80A	0.08
U1A U26C A28G A35G U54A	0.19
U1A G30U G46U A65G A75G	0.06
U1A U31C A35U U58C	0.34
U1A G33C U41A	0.21
U1A A15G A64U U72A U80A	0.15
U1A A35U U41A A56G A57G A64U	0.07
U1A A15C C27A A56G U67A	0.22

Variant	self-cleavage
U1A C12A C44U C62A U78C	0.12
U1A A18U U78C	0.59
U1A U41A U48C	0.31
U1A C34G A64U A75U	0.16
U1A C4A A35G A64G U72C	1.26
U1A A47G U51C	0.58
U1A G6U U67C U76A	0.16
U1A G30A A35C C40U A56C A75U	0.1
U1A G16C C39A U49A U72G	0.12
U1A U41A U51G	0.06
U1A A13G C14G U43C	0.46
U1A A18U A56U U74C	0.5
U1A A13G C29U U58A	0.34
U1A U25A A56U	0.34
U1A A15G G42U U67C	0.15
U1A U43A U51C	1.09
U1A U48C A57G A64U A65U	0.18
U1A U26C A57G	0.39
U1A G9A U26C A45G A47U U49A	0
U1A A20G U54A U66C	0.16
U1A A28G A35C U66C	0.11
U1A U49A A64U	0.17
U1A U26C C38U G42A A45G	0.18
U1A C11U G52U	0.5

Variant	self-cleavage
U1A A15U A21G C38U C44U G73A	0.07
U1A C11G U58A	0.24
U1A C11U U31C U74A	0.67
U1A A13G C29U	0.3
U1A U43C U69C U80C	0.22
U1A A35G A56U	1.21
U1A U41C U80C C81U	1.1
U1A A20G A45G A57G U80C	0.24
U1A A47G U60C	0.14
U1A C4U G19A G30C U60C U74A	0.49
U1A A5U U43A U58C G70A U74C	0.22
U1A A5U C11G U66C U72A	0.17
U1A C44U U51C	0.35
U1A A45G A65U	0.29
U1A A45G A65G	0.3
U1A A20U U25C A35G U51A U72A	0.13
U1A A15G U80A	1.14
U1A A15G A20G U41A A64G	0.08
U1A G10A A13C A15U A28G U66C U67C	0.24
U1A A20U U41C A56G A57U U58C U60A	0.11
U1A C37G C40U U51A	0.23
U1A U48C G52A U78C	0.85
U1A G10A U25C U51G U54C	0
U1A A20U U49A G63U U80A	0.13

Variant	self-cleavage
U1A A15G C79U	1.21
U1A A15G U41C U43C A57G U67C U72C	0.07
U1A G53A U66C A77U	0.21
U1A A13U U31C A56G A57G A77U	0.22
U1A A20U U60C U72A	0.14
U1A G7U C29U U72A	0.14
U1A G7U G10A A18U U26C U41A U76C	0.05
U1A G10A A35G	0.79
U1A C38U U49C U78C	0.29
U1A G7C G8A A18U A65G U69A U74C	0.06
U1A A21G C27U U54C	0.36
U1A A18G U72C	0.15
U1A A18U U41A G46C A65C U66C A77G	0.04
U1A A21U A35U U58C U60C C71G	0.04
U1A A35U A77G	0.38
U1A A35U A77U	0.41
U1A A45G A64U	0.21
U1A G8U A18G A64G	0.18
U1A A18G C34U U41C U43A U67C	0.07
U1A A20G U51A U54G	0.24
U1A A56G U66A C68U	0.23
U1A A13G A57G U78A	0.18
U1A G7A A15G A18G U31C U41A A75U	0.29
